Test results from PubChem BioAssay AID1240 (Sanford-Burnham Center for Chemical Genomics, 2008).
Values joined by “and” are separate entries in the source; they are usually repeats but may differ in a detail not shown here. Identical values can stand only once. Out of some 50,000 compounds screened, about 800 (1.6%) showed an effect of 50% or more. This is one part of the list.

Biological target: Bcl-2-like protein 10 (Homo sapiens) (UniProt Q9HD36)
Test: Phenotype converters, Bcl-B/TR3 peptide binding displacement, primary biochemical FP (AID 1240);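 also: 0% = Bcl-B with tracer peptide and DMSO and 100% = tracer peptide lacking Bcl-B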
Conditions: GST-Bcl-B / FITC-TR3 peptide fluorescence polarization; stronger effect = higher value; compound at 3.75 mg/L

Sequence of UniProt Q9HD36 (Q9HD36 whole entry, looked up): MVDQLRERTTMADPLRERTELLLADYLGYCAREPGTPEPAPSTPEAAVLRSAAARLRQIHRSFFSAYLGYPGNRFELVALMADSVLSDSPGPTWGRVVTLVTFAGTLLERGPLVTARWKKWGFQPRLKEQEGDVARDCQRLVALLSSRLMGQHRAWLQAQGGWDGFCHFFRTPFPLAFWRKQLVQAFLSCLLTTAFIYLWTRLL

Which displacement does the source give for CSc1nnc(-c2ccc(C)cc2)o1 here?
Its displacement is 11.4%.

With CC(C)c1ccc(NC(=O)c2cccnc2)cc1 as the compound, how does the displacement read?
Its displacement is 7.4%.

For O=C(CSc1nc2sc3c(c2c(=O)[nH]1)CCCC3)N1CCCC1, which displacement is on record?
The displacement was -4.9%.

Cc1ccc2c(c1)c1c3n2CCN(CCC(=O)O)C3CCC1 (stereo not given) was tested. Which displacement did it give?
The displacement was 12.2%.

For COc1ccc(/C=C2\SC(=S)N(CCCC(=O)Nc3ccc(O)cc3)C2=O)cc1, which displacement is on record?
Its displacement is 8.1%.

How did the displacement turn out when Cc1ccc(/C=N/NS(=O)(=O)c2ccc(Cl)cc2)cc1 was run?
Its displacement is -1.7%.

With COc1ccccc1C/C(N)=N/OC(=O)c1cccc(Br)c1 as the compound, how does the displacement read?
The displacement was 2.9%.

O=[N+]([O-])c1ccc(O)c(/C=N/Nc2nc(-c3ccc(Br)cc3)cs2)c1 was tested. Which displacement did it give?
The displacement was -8.8%.

Which displacement does the source give for CCN(CC)c1ccc(NC(=S)Nc2ccc(F)cc2)cc1 here?
Its displacement is -2.8%.

COc1ccc(N=C2SC(C(=O)N3CCN(c4ccccn4)CC3)CC(=O)N2C)cc1 (stereo not given) was tested. Which displacement did it give?
The displacement was -7.6%.

For N#CC(c1ccc(O)cc1)N1CCOCC1 (stereo not given), which displacement is on record?
Its displacement is -3.5%.

CCOC(=O)NC(NCc1ccccc1)(C(F)(F)F)C(F)(F)F was tested. Which displacement did it give?
Its displacement is 11.1%.

COc1cc(C2SCC(=O)N2CCN2CCCCC2)cc([N+](=O)[O-])c1O (stereo not given) was tested. Which displacement did it give?
The displacement was 11.6%.

Cc1ccc(C2CC(C(F)(F)F)n3nc(C(=O)N4CCN(c5ccccc5)CC4)cc3N2)cc1 (stereo not given) was tested. Which displacement did it give?
Its displacement is 1%.

How did the displacement turn out when Cc1cccc(N2C(=O)C3C4c5ccccc5C(C)(c5ccccc54)C3C2=O)c1C (stereo not given) was run?
The displacement was -13.6%.

O=[N+]([O-])c1cc(S(=O)(=O)Nc2cc(Cl)ccc2Cl)ccc1Cl was tested. Which displacement did it give?
Its displacement is -9.6%.

With C=CCOC(=O)C1=C(C)N(CC)C(=O)NC1c1ccc(Br)cc1 (stereo not given) as the compound, how does the displacement read?
The displacement was 12.2%.

With O=C(c1ccc(F)cc1)N1CCN(C(=O)c2ccc([N+](=O)[O-])cc2)CC1 as the compound, how does the displacement read?
Its displacement is 11%.

How did the displacement turn out when COc1ccc(NC(=O)C2=C(C)NC(=O)NC2c2ccccc2Br)cc1 (stereo not given) was run?
The displacement was -10.8%.

For COC(=O)C1=C(C)NC2=C(C(=O)c3ccccc32)C1c1ccc(OCc2ccc(F)cc2)c(OC)c1 (stereo not given), which displacement is on record?
Its displacement is 10.7%.

For O=C(Nc1c[nH]c(=O)[nH]c1=O)c1cccc([N+](=O)[O-])c1, which displacement is on record?
The displacement was 3%.

O=C1CCCC2=C1C(c1ccc(F)cc1)Nc1ccccc1N2 (stereo not given) was tested. Which displacement did it give?
Its displacement is -5.1%.

O=C(COc1ccccc1)NCCCn1ccnc1 was tested. Which displacement did it give?
The displacement was 4.7%.

Cc1cccnc1N(C(=O)c1cccc(Cl)c1)C(=O)c1cccc(Cl)c1 was tested. Which displacement did it give?
Its displacement is -3.2%.

Which displacement does the source give for CCOC(=O)c1sc(NC(=O)c2ccccc2C)nc1C here?
The displacement was 0%.

Which displacement does the source give for Nc1nc(CN2C(=O)c3ccccc3C2=O)cs1 here?
Its displacement is -5.3%.

For CCOC(=O)c1c(NC(=O)C2(c3ccccc3)CCCC2)sc2c1CC(C)(C)OC2, which displacement is on record?
The displacement was -7.4%.

Which displacement does the source give for COc1ccccc1CC1CC(=O)N(c2ccc([N+](=O)[O-])cc2)C1=O (stereo not given) here?
The displacement was 11.1%.

Which displacement does the source give for O=C(N/C(=C/c1ccc(Br)cc1)C(=O)N1CCCC1)c1ccccc1F here?
The displacement was -8.9%.

CCOc1ccc(Cl)cc1/C=c1\sc2nc3ccccc3n2c1=O was tested. Which displacement did it give?
Its displacement is 13.4%.

How did the displacement turn out when COc1ccccc1N1CCN(C(=O)CN(c2ccccc2C)S(C)(=O)=O)CC1 was run?
The displacement was -15.9%.

Which displacement does the source give for Cc1ccccc1NC(=O)c1c(NC(=O)c2ccccc2C)sc2c1CCCCC2 here?
The displacement was 13%.

How did the displacement turn out when COc1cccc(N2C(=O)C(=O)/C(=C(\O)c3ccccc3)C2c2ccc(OC)cc2OC)c1 (stereo not given) was run?
The displacement was 6.8%.

How did the displacement turn out when COc1ccc(/C=C2/SC(=S)N(c3cccc(Cl)c3)C2=O)c2ccccc12 was run?
The displacement was 15.4%.

For N=c1n(N)c2ccccc2n1CCO, which displacement is on record?
Its displacement is -2.3%.

For N#C/C(=C/c1cc(Br)cc(Br)c1O)c1ccc([N+](=O)[O-])cc1, which displacement is on record?
Its displacement is 3.2%.

O=C(O)c1ccc(NC(=O)c2ccccc2F)c(NC(=O)c2ccccc2F)c1 was tested. Which displacement did it give?
Its displacement is 12.6%.

With COC(=O)c1ccc(CN2CCc3ccccc3C2)cc1 as the compound, how does the displacement read?
Its displacement is 1.7%.

O=[N+]([O-])c1ccc(NCCCNS(=O)(=O)c2ccc(Cl)cc2)cc1 was tested. Which displacement did it give?
Its displacement is 9.2%.

How did the displacement turn out when COc1cccc(C(=O)N2CCN(Cc3ccc(SC)cc3)CC2)c1 was run?
The displacement was -9.1%.

How did the displacement turn out when Cc1cc(C2CCC(c3ccc(NC(=O)c4cccs4)c(C)c3)CC2)ccc1NC(=O)c1cccs1 (stereo not given) was run?
The displacement was -5%.

How did the displacement turn out when c1ccc(-c2n[nH]c(C3COc4ccccc4O3)c2-c2nc3ccccc3[nH]2)cc1 (stereo not given) was run?
Its displacement is 6%.

With Cc1ccc(S(=O)(=O)n2cc(/C=C3\SC(N)=NC3=O)c3ccccc32)cc1 as the compound, how does the displacement read?
Its displacement is 11.2%.

For CC1=C(C(=O)Nc2ccccc2C)C(c2ccccc2Br)NC(=O)N1 (stereo not given), which displacement is on record?
The displacement was 13.8%.

With O=C(NC(=O)c1ccccn1)NC(c1ccccc1)c1ccccc1 as the compound, how does the displacement read?
The displacement was -2.1% and 8.8%.

Which displacement does the source give for O=C(O)C1CC=CCC1C(=O)Nc1ccccc1Nc1ccccc1 (stereo not given) here?
The displacement was -6.1%.

How did the displacement turn out when COc1ccc(Cl)cc1NS(=O)(=O)c1ccc(F)cc1 was run?
Its displacement is -16.7%.

Which displacement does the source give for Cc1ccc(-c2cc(C(=O)NCCN3CCOCC3)c3ccccc3n2)cc1 here?
The displacement was -0.2%.

Brc1ccc(-c2nc(-c3ccncc3)no2)cc1 was tested. Which displacement did it give?
Its displacement is -4.6%.

With CC1CCN(c2ccc(C(=O)c3ccccc3)cc2F)CC1 as the compound, how does the displacement read?
Its displacement is -9.7%.

For O=C(COc1ccccc1Cl)Nc1cccc(-c2nc3ncccc3o2)c1, which displacement is on record?
The displacement was 42.5%.

How did the displacement turn out when C=CCC(Nc1ccccc1)C12C=CC(O1)C(C(=O)OC)=C2C(=O)OC (stereo not given) was run?
Its displacement is -12.8%.

For CC(=O)OCC12COC(c3ccc4c(c3)OCO4)C(C(C)=CC1C)C2C (stereo not given), which displacement is on record?
Its displacement is 0.6%.

For O=C1/C(=C/N2CCCCC2)c2ccccc2C(=O)N1c1ccccc1, which displacement is on record?
The displacement was 1.8%.

O=C(NCCCn1ccnc1)c1ccccc1[N+](=O)[O-] was tested. Which displacement did it give?
Its displacement is 3.9%.

O=c1c2c(nc3cc(-c4ccc(Br)cc4)[nH]n13)CCCC2 was tested. Which displacement did it give?
Its displacement is 11%.

How did the displacement turn out when COc1cc(/C=N/Nc2ccc3ccccc3n2)c([N+](=O)[O-])cc1OC was run?
Its displacement is -36.3%.

With COC(=O)c1ccc(-n2ncnc2-c2cccc(Br)c2)cc1 as the compound, how does the displacement read?
Its displacement is -7.8%.

With O=S(=O)(Nc1ccc(O)cc1)c1ccc(F)cc1 as the compound, how does the displacement read?
The displacement was 10.3%.

COc1ccc(NC(=O)C2=C(C)NC(=O)NC2c2cccc(OC)c2)cc1 (stereo not given) was tested. Which displacement did it give?
Its displacement is -15.9%.

How did the displacement turn out when CCSc1nnc2n(Cc3ccccc3)c(=O)c3c4c(sc3n12)CC(C(C)(C)C)CC4 (stereo not given) was run?
The displacement was -8.9%.

How did the displacement turn out when FC(F)(F)c1cc(-c2cccs2)c2nncn2n1 was run?
Its displacement is 3.6%.

CC(=O)c1ccc(N2CCN(C3CC(=O)N(c4ccc(C)cc4)C3=O)CC2)cc1 (stereo not given) was tested. Which displacement did it give?
Its displacement is 2%.

For COc1ccc(/C=C2\SC(=S)NC2=O)c(OC)c1OC, which displacement is on record?
Its displacement is 5.6%.

With O=C1NC(=O)/C(=C/c2ccc3c(c2)OCO3)S1 as the compound, how does the displacement read?
Its displacement is 36.2%.

For COc1ccc(N2C(=O)CC(Nc3ccc(O)cc3)C2=O)cc1 (stereo not given), which displacement is on record?
The displacement was 6%.

Cc1cccc(OCCOc2cccc(/C=N/n3cnnc3)c2)c1 was tested. Which displacement did it give?
Its displacement is 0.9%.

Which displacement does the source give for Brc1ccc(-c2noc(-c3ccc(-c4ccccc4)cc3)n2)cc1 here?
The displacement was -5.3%.

How did the displacement turn out when OC(C#CC(O)(c1ccccc1)c1ccccc1)c1cccnc1 (stereo not given) was run?
Its displacement is 5%.

How did the displacement turn out when CC(C)c1ccc(N(CC(=O)N(C)Cc2ccccc2)S(=O)(=O)c2ccccc2)cc1 was run?
The displacement was 1.1%.
